Measured values reported in the supplement of paper PMC4967469.
A lower IC50 marks a more sensitive line; a limit (>, <) means that the fit lies beyond the doses tested. AUC is the area under the same curve over the 256-fold range up to the top dose, as a fraction; it is 1 without any effect and falls as sensitivity rises.

Compound: CC[C@H](Nc1ncnc2[nH]cnc12)c1nc2cccc(F)c2c(=O)n1-c1ccccc1 [CAL-101]
Assay: Viability of human cancer cell lines after 72 h of drug (GDSC screen)
Experimental: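 Human cancer cell lines in 384-well plates, medium with 10% serum, drug for 72 h over a 256-fold dose range (nine 2-fold or five 4-fold steps up to the top dose). Adherent lines were fixed and stained with the nucleic acid dye Syto60, suspension lines read with resazurin; signal relative to control wells, capped at 0 and 100%. One two-parameter sigmoid per drug and line, fitted in a mixed model over all curves with the slope shared within a line.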

Cell Line | AUC | IC50
ES-2 (ovary, adherent, top dose 20 µM) | 0.988 | > 20 µM
ESO26 (oesophagus, adherent, top dose 20 µM) | 0.982 | > 20 µM
ESO51 (oesophagus, semi-adherent, top dose 20 µM) | 0.965 | > 20 µM
ESS-1 (endometrium, adherent, top dose 20 µM) | 0.973 | > 20 µM
ETK-1 (biliary tract, adherent, top dose 20 µM) | 0.955 | > 20 µM
EVSA-T (breast, adherent, top dose 20 µM) | 0.884 | 16.3 µM
EW-1 (Ewing sarcoma, semi-adherent, top dose 20 µM) | 0.894 | > 20 µM
EW-3 (Ewing sarcoma, adherent, top dose 20 µM) | 0.954 | > 20 µM
EW-7 (Ewing sarcoma, semi-adherent, top dose 20 µM) | 0.91 | > 20 µM
EW-11 (Ewing sarcoma, adherent, top dose 20 µM) | 0.875 | > 20 µM
EW-13 (Ewing sarcoma, suspension, top dose 20 µM) | 0.86 | 19.8 µM
EW-16 (Ewing sarcoma, adherent, top dose 20 µM) | 0.951 | > 20 µM
EW-18 (Ewing sarcoma, suspension, top dose 20 µM) | 0.893 | > 20 µM
EW-24 (Ewing sarcoma, semi-adherent, top dose 20 µM) | 0.993 | > 20 µM
EoL-1-cell (haematopoietic neoplasm, suspension, top dose 20 µM) | 0.963 | > 20 µM
FADU (head and neck, adherent, top dose 20 µM) | 0.986 | > 20 µM
FLO-1 (oesophagus, adherent, top dose 20 µM) | 0.902 | > 20 µM
FTC-133 (thyroid, adherent, top dose 20 µM) | 0.986 | > 20 µM
FU97 (stomach, adherent, top dose 20 µM) | 0.924 | > 20 µM
FU-OV-1 (ovary, adherent, top dose 20 µM) | 0.858 | > 20 µM
Farage (B-cell lymphoma, suspension, top dose 20 µM) | 0.496 | 1.22 µM

Cell Line | AUC | IC50
G-292 Clone A141B1 (osteosarcoma, adherent, top dose 20 µM) | 0.896 | > 20 µM
G-361 (melanoma, adherent, top dose 20 µM) | 0.959 | > 20 µM
G-401 (kidney, adherent, top dose 20 µM) | 0.928 | > 20 µM
G-402 (soft tissue, adherent, top dose 20 µM) | 0.873 | > 20 µM
G-MEL (melanoma, adherent, top dose 20 µM) | 0.955 | > 20 µM
GAK (melanoma, adherent, top dose 20 µM) | 0.989 | > 20 µM
GAMG (glioma, adherent, top dose 20 µM) | 0.906 | > 20 µM
GB-1 (glioma, adherent, top dose 20 µM) | 0.949 | > 20 µM
GCIY (stomach, adherent, top dose 20 µM) | 0.979 | > 20 µM
GCT (soft tissue, adherent, top dose 20 µM) | 0.989 | > 20 µM
GDM-1 (acute myeloid leukaemia, suspension, top dose 20 µM) | 0.688 | 4.1 µM
GI-1 (glioma, adherent, top dose 20 µM) | 0.954 | > 20 µM
GI-ME-N (neuroblastoma, adherent, top dose 20 µM) | 0.898 | > 20 µM
GMS-10 (glioma, adherent, top dose 20 µM) | 0.988 | > 20 µM
GOTO (neuroblastoma, adherent, top dose 20 µM) | 0.98 | > 20 µM
GP5d (large intestine, adherent, top dose 20 µM) | 0.962 | > 20 µM
GR-ST (lymphoblastic leukaemia, suspension, top dose 20 µM) | 0.903 | > 20 µM
GRANTA-519 (B-cell lymphoma, suspension, top dose 20 µM) | 0.9 | > 20 µM
GT3TKB (stomach, adherent, top dose 20 µM) | 0.99 | > 20 µM
H4 (glioma, adherent, top dose 20 µM) | 0.958 | > 20 µM
H9 (lymphoid neoplasm, suspension, top dose 20 µM) | 0.984 | > 20 µM

Cell Line | AUC | IC50
H290 (mesothelioma, adherent, top dose 20 µM) | 0.975 | > 20 µM
H513 (mesothelioma, semi-adherent, top dose 20 µM) | 0.973 | > 20 µM
H2369 (mesothelioma, adherent, top dose 20 µM) | 0.984 | > 20 µM
H2373 (mesothelioma, adherent, top dose 20 µM) | 0.98 | > 20 µM
H2461 (mesothelioma, adherent, top dose 20 µM) | 0.98 | > 20 µM
H2591 (mesothelioma, adherent, top dose 20 µM) | 0.972 | > 20 µM
H2595 (mesothelioma, adherent, top dose 20 µM) | 0.967 | > 20 µM
H2722 (mesothelioma, adherent, top dose 20 µM) | 0.983 | > 20 µM
H2731 (mesothelioma, adherent, top dose 20 µM) | 0.937 | > 20 µM
H2795 (mesothelioma, adherent, top dose 20 µM) | 0.938 | > 20 µM
H2803 (mesothelioma, adherent, top dose 20 µM) | 0.98 | > 20 µM
H2804 (mesothelioma, adherent, top dose 20 µM) | 0.963 | > 20 µM
H2818 (mesothelioma, adherent, top dose 20 µM) | 0.981 | > 20 µM
H3118 (head and neck, adherent, top dose 20 µM) | 0.954 | > 20 µM
H3255 (lung adenocarcinoma, adherent, top dose 20 µM) | 0.976 | > 20 µM
H-EMC-SS (chondrosarcoma, adherent, top dose 20 µM) | 0.94 | > 20 µM
HA7-RCC (kidney, adherent, top dose 20 µM) | 0.904 | > 20 µM
HAL-01 (lymphoblastic leukaemia, suspension, top dose 20 µM) | 0.207 | 0.196 µM
HARA (lung squamous cell carcinoma, adherent, top dose 20 µM) | 0.945 | > 20 µM
HC-1 (hairy cell leukaemia, suspension, top dose 20 µM) | 0.624 | 2.7 µM
HCC38 (breast, adherent, top dose 20 µM) | 0.953 | > 20 µM

Cell Line | AUC | IC50
HCC70 (breast, adherent, top dose 20 µM) | 0.929 | > 20 µM
HCC202 (breast, adherent, top dose 20 µM) | 0.821 | 18.2 µM
HCC1143 (breast, adherent, top dose 20 µM) | 0.924 | > 20 µM
HCC1187 (breast, suspension, top dose 20 µM) | 0.936 | > 20 µM
HCC1395 (breast, adherent, top dose 20 µM) | 0.971 | > 20 µM
HCC1419 (breast, adherent, top dose 20 µM) | 0.966 | > 20 µM
HCC1428 (breast, adherent, top dose 20 µM) | 0.977 | > 20 µM
HCC1500 (breast, adherent, top dose 10.24 µM) | 0.988 | > 10.2 µM
HCC1569 (breast, adherent, top dose 20 µM) | 0.867 | > 20 µM
HCC1599 (breast, suspension, top dose 20 µM) | 0.905 | > 20 µM
HCC1806 (breast, adherent, top dose 20 µM) | 0.989 | > 20 µM
HCC1937 (breast, adherent, top dose 20 µM) | 0.943 | > 20 µM
HCC1954 (breast, adherent, top dose 20 µM) | 0.962 | > 20 µM
HCC2157 (breast, suspension, top dose 20 µM) | 0.985 | > 20 µM
HCC2218 (breast, suspension, top dose 20 µM) | 0.941 | > 20 µM
HCC2998 (large intestine, adherent, top dose 20 µM) | 0.979 | > 20 µM
HCC-15 (lung squamous cell carcinoma, adherent, top dose 20 µM) | 0.959 | > 20 µM
HCC-33 (small cell lung carcinoma, adherent, top dose 20 µM) | 0.965 | > 20 µM
HCC-44 (lung adenocarcinoma, adherent, top dose 20 µM) | 0.972 | > 20 µM
HCC-56 (large intestine, adherent, top dose 20 µM) | 0.94 | > 20 µM
